From the supplement of paper PMC4604168 (melanoma cell lines)
Some of the results follow. Single values are uncertain, as repeats are few or missing.

How the values were obtained:
Assay in all cases: cell count relative to DMSO control; melanoma cells; higher = more viable cells
Conditions in all cases: library dose: standard library concentration; 72 h
[1] = tested on: SkMel28
[2] = tested on: SkMel2
[3] = tested on: SkMel30
[4] = tested on: SkMel5
[5] = tested on: UACC257
[6] = tested on: UACC62
[7] = tested on: WM115
[8] = tested on: WM1716
[9] = tested on: WM3526
[10] = tested on: WM1745
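Note: cells treated in 1,536-well plates, then fixed and DAPI-stained, with nuclei counted from automated high-throughput microscope images.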

Row | SMILES | cell count [1] [%] | cell count [2] [%] | cell count [3] [%] | cell count [4] [%] | cell count [5] [%] | cell count [6] [%] | cell count [7] [%] | cell count [8] [%] | cell count [9] [%] | cell count [10] [%]
1 | COc1ccc(C2=N[C@@H](c3ccc(Cl)cc3)[C@@H](c3ccc(Cl)cc3)N2C(=O)N2CCNC(=O)C2)c(OC(C)C)c1 [Nutlin-3] + O=C(O)C(=O)Nc1sc2c(c1C(=O)O)CCNC2 [TCS401] (first compound 0.5 µM, partner dose 8.33333 µM) | 45.3 | 87.6 | 110 | 78.1 | 81.6 | 75.6 | 85.1 | 87.4 | 81.5 | 
2 | Cc1cn(-c2cc(NC(=O)c3ccc(C)c(Nc4nccc(-c5cccnc5)n4)c3)cc(C(F)(F)F)c2)cn1 [nilotinib] + Cc1cc([N+](=O)[O-])ccc1NS(=O)(=O)c1cc(Cl)ccc1Cl [FH535] (first compound 1 µM, partner dose 5 µM) | 61.1 | 85.6 | 96.6 | 82.4 | 85.2 | 89.3 | 84.2 | 109 | 79.1 | 
3 | Cc1cc(Nc2cc(N3CCN(C)CC3)nc(/C=C/c3ccccc3)n2)n[nH]1 + COc1cc(N2CCC(N3CCN(C)CC3)CC2)ccc1Nc1ncc(Cl)c(Nc2ccccc2S(=O)(=O)C(C)C)n1 [NVP-TAE684] (first compound 0.2 µM, partner dose 0.4 µM) | 34.7 | 61.2 | 101 | 73.1 | 84 | 76.3 | 40.3 | 75.1 | 77.8 | 
4 | CC(C)C[C@H](NC(=O)[C@H](Cc1ccccc1)NC(=O)c1cnccn1)B(O)O [Bortezomib] + CCc1ccc(CCOc2ccc(CC3SC(=O)NC3=O)cc2)nc1 [pioglitazone] (first compound 0.005 µM, partner dose 10 µM) | 22 | 39.7 | 33.7 | 29.2 | 65 | 70 | 25.9 | 18.9 | 30.7 | 
5 | Cc1cc(Nc2cc(N3CCN(C)CC3)nc(/C=C/c3ccccc3)n2)n[nH]1 + CN(NC(=O)CC(=O)NN(C)C(=S)c1ccccc1)C(=S)c1ccccc1 [STA4783] (first compound 0.2 µM, partner dose 0.03 µM) | 36.2 |  | 87.4 | 60.3 | 95.1 | 44.8 | 16.3 | 82.4 | 80.5 | 24
6 | Cc1cc(Nc2cc(N3CCN(C)CC3)nc(/C=C/c3ccccc3)n2)n[nH]1 + CC(C)CCN1c2nc(Nc3cc(F)c(O)c(F)c3)ncc2N(C)C(=O)C1C [BID1870] (first compound 0.2 µM, partner dose 1 µM) | 53.6 | 76.6 | 75 | 65.5 | 78.5 | 70.9 | 67.2 | 55.9 | 87.5 | 
7 | Cc1cc(Nc2cc(N3CCN(C)CC3)nc(/C=C/c3ccccc3)n2)n[nH]1 + COc1ccc2c(c1)CCC1C2CCC2(C)C(NCCCCCCN3C(=O)C=CC3=O)CCC12 [U73122] (first compound 0.2 µM, partner dose 2 µM) | 47.1 | 83.7 | 67.2 | 78.6 | 73.6 | 62.6 | 60.1 | 69.1 | 81.6 | 
8 | Cc1cc(Nc2cc(N3CCN(C)CC3)nc(/C=C/c3ccccc3)n2)n[nH]1 + O=c1cc(-c2cccc3c2Sc2ccccc2S3)oc(N2CCOCC2)c1 [KU55933] (first compound 0.2 µM, partner dose 5 µM) | 61.9 | 83.4 | 101 | 92.4 | 93.4 | 77.5 | 82.1 | 83.4 | 64.7 | 
9 | Cc1cn(-c2cc(NC(=O)c3ccc(C)c(Nc4nccc(-c5cccnc5)n4)c3)cc(C(F)(F)F)c2)cn1 [nilotinib] + COC(=O)c1sccc1S(=O)(=O)Nc1ccc(Nc2ccccc2)cc1OC [GSK0660] (first compound 1 µM, partner dose 5 µM) | 91.7 | 101 | 91 | 65.4 | 85.2 | 93.6 | 88.1 | 86.5 | 79.5 | 
10 | Cc1cc(Nc2cc(N3CCN(C)CC3)nc(/C=C/c3ccccc3)n2)n[nH]1 + O=C(O)C(=O)Nc1sc2c(c1C(=O)O)CCNC2 [TCS401] (first compound 0.2 µM, partner dose 8.33333 µM) | 76.3 | 90.3 | 116 | 66.4 | 83.5 | 87.6 | 76 | 93.3 | 84.2 | 
11 | Cc1cc(Nc2cc(N3CCN(C)CC3)nc(/C=C/c3ccccc3)n2)n[nH]1 + N#Cc1c(O)c2c(-c3ccc(-c4ccccc4O)cc3)csc2[nH]c1=O [A769662] (first compound 0.2 µM, partner dose 10 µM) | 77.1 | 95.1 | 115 | 91.4 | 80.1 | 64 | 82.9 | 90.1 | 92.2 | 
12 | Cc1cn(-c2cc(NC(=O)c3ccc(C)c(Nc4nccc(-c5cccnc5)n4)c3)cc(C(F)(F)F)c2)cn1 [nilotinib] + COc1ccc(-c2ccc3c(N4CCOCC4)nc(N4C[C@@H](C)O[C@@H](C)C4)nc3n2)cc1CO [KU0063794] (first compound 1 µM, partner dose 0.1 µM) | 63.6 | 80.1 | 97.7 | 59 | 104 | 67.6 | 67 | 91.9 | 74.7 | 
13 | Cc1cn(-c2cc(NC(=O)c3ccc(C)c(Nc4nccc(-c5cccnc5)n4)c3)cc(C(F)(F)F)c2)cn1 [nilotinib] + COc1ccc(COc2ccc(Cc3cnc(N)nc3N)cc2OC)cc1 [GW2580] (first compound 1 µM, partner dose 5 µM) | 82.4 | 81.3 | 81.7 | 57.1 | 110 | 94.4 | 85.1 | 105 | 70.9 | 
14 | COc1ccc(C2=N[C@@H](c3ccc(Cl)cc3)[C@@H](c3ccc(Cl)cc3)N2C(=O)N2CCNC(=O)C2)c(OC(C)C)c1 [Nutlin-3] + O=C1NC(=O)/C(=C/c2ccc(-c3ccc(F)cc3O)o2)S1 [AS252424] (first compound 0.5 µM, partner dose 5 µM) | 67.5 | 72.1 | 111 | 73.3 | 91.6 | 73.5 | 84.2 | 92.5 | 76.5 | 
15 | COc1ccc(C2=N[C@@H](c3ccc(Cl)cc3)[C@@H](c3ccc(Cl)cc3)N2C(=O)N2CCNC(=O)C2)c(OC(C)C)c1 [Nutlin-3] + CCN(CC)CCCCNc1ncc2cc(-c3cc(OC)cc(OC)c3)c(NC(=O)NC(C)(C)C)nc2n1 [PD173074] (first compound 0.5 µM, partner dose 0.5 µM) | 50.3 | 93.2 | 101 | 55.5 | 79.2 | 62.6 | 72.1 | 64.8 | 85.3 | 
16 | Cn1c(=O)n(-c2ccc(C(C)(C)C#N)cc2)c2c3cc(-c4cnc5ccccc5c4)ccc3ncc21 + CN(NC(=O)CC(=O)NN(C)C(=S)c1ccccc1)C(=S)c1ccccc1 [STA4783] (first compound 0.02 µM, partner dose 0.03 µM) | 51.2 |  | 55.2 | 47.1 | 79.5 | 40.7 | 15.8 | 51.6 | 66.9 | 33.1
17 | Cc1cc(Nc2cc(N3CCN(C)CC3)nc(/C=C/c3ccccc3)n2)n[nH]1 + c1cc(-c2cnn3cc(-c4ccc(OCCN5CCCCC5)cc4)cnc23)ccn1 [Dorsomorphin] (first compound 0.2 µM, partner dose 2 µM) | 65.1 | 79.9 | 90 | 45 | 72.1 | 56.7 | 44.2 | 65.7 | 71.7 | 
18 | COc1ccc(C2=N[C@@H](c3ccc(Cl)cc3)[C@@H](c3ccc(Cl)cc3)N2C(=O)N2CCNC(=O)C2)c(OC(C)C)c1 [Nutlin-3] + O=S(=O)(c1ccccc1)N(CC(F)(F)F)c1ccc(C(O)(C(F)(F)F)C(F)(F)F)cc1 [T0901317] (first compound 0.5 µM, partner dose 7 µM) | 46.6 | 82.3 | 80.8 | 81.6 | 66.1 | 59.7 | 77.2 | 65.2 | 74.7 | 
19 | Cn1c(=O)n(-c2ccc(C(C)(C)C#N)cc2)c2c3cc(-c4cnc5ccccc5c4)ccc3ncc21 + CCN(CC)CCCCNc1ncc2cc(-c3cc(OC)cc(OC)c3)c(NC(=O)NC(C)(C)C)nc2n1 [PD173074] (first compound 0.02 µM, partner dose 0.5 µM) | 53 | 54.8 | 87.2 | 72 | 110 | 64.3 | 73.8 | 69.7 | 84.9 | 
20 | Cn1c(=O)n(-c2ccc(C(C)(C)C#N)cc2)c2c3cc(-c4cnc5ccccc5c4)ccc3ncc21 + O=S(=O)(c1ccccc1)N(CC(F)(F)F)c1ccc(C(O)(C(F)(F)F)C(F)(F)F)cc1 [T0901317] (first compound 0.02 µM, partner dose 7 µM) | 32.1 | 43.5 | 63.8 | 69.2 | 84.5 | 71.3 | 53.4 | 79.2 | 67.8 | 
21 | Cn1c(=O)n(-c2ccc(C(C)(C)C#N)cc2)c2c3cc(-c4cnc5ccccc5c4)ccc3ncc21 + N#Cc1c(O)c2c(-c3ccc(-c4ccccc4O)cc3)csc2[nH]c1=O [A769662] (first compound 0.02 µM, partner dose 10 µM) | 49.8 | 73.6 | 73 | 71 | 94 | 81.5 | 73.6 | 81.2 | 65.1 | 
22 | Cc1cn(-c2cc(NC(=O)c3ccc(C)c(Nc4nccc(-c5cccnc5)n4)c3)cc(C(F)(F)F)c2)cn1 [nilotinib] + O=S(=O)(c1ccccc1)N(CC(F)(F)F)c1ccc(C(O)(C(F)(F)F)C(F)(F)F)cc1 [T0901317] (first compound 1 µM, partner dose 7 µM) |  | 85.2 | 88.3 | 62.9 | 73.2 | 73.6 | 79.8 | 103 | 65.6 | 
23 | Cn1c(=O)n(-c2ccc(C(C)(C)C#N)cc2)c2c3cc(-c4cnc5ccccc5c4)ccc3ncc21 + CC(C)(C)c1cnc(CSc2cnc(NC(=O)C3CCNCC3)s2)o1 [SNS-032] (first compound 0.02 µM, partner dose 0.05 µM) | 40.7 |  | 52.7 | 57.9 | 82.7 | 89.2 | 60.9 | 61.7 | 67.8 | 96.4
